# Data taken from PubChem BioAssay AID1634 (National Center for Advancing Translational Sciences (NCATS), 2009).
# Screen size: about 260,000 compounds; about 150 (0.058%) were called active. This list was built around the results that the source calls inconclusive (neither active nor inactive); the mix of calls is not that of the screen. Calls come from the whole dose curve; as a rule, active = well fitted inhibition curve with a large enough effect; inconclusive = small, poorly fitted or top-dose-only effect; inactive = no such curve, though single readings can be large or run the other way. No potency is given beside an inconclusive call; the fits are too rough.
# Biological target: Pyruvate kinase PKM (Homo sapiens) (UniProt P14618)
# UniProt P14618, sequence (P14618 whole entry, looked up, canonical isoform): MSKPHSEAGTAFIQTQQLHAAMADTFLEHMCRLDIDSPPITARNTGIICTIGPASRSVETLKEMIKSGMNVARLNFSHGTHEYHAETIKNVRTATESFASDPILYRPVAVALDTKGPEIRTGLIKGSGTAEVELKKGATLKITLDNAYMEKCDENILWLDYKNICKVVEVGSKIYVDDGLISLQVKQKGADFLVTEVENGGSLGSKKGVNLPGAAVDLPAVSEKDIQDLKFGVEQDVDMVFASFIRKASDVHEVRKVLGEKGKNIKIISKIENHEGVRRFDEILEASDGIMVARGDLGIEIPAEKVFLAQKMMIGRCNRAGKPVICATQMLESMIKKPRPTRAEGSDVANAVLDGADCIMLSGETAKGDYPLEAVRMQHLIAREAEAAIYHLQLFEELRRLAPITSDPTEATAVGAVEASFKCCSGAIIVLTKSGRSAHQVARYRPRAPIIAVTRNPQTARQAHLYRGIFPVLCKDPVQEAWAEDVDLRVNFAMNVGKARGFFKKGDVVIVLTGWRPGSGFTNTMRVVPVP
# Test: qHTS Assay for Inhibitors of Human Muscle isoform 2 Pyruvate Kinase; note: nearly all actives have a fitted effect of over 60% in size;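 for activity change, negative = inhibition: plate controls were uninhibited enzyme wells for no effect and no-enzyme wells for full effect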
# Conditions: purified PKM2, ATP generation, Kinase-Glo luminescence; series mostly up to 57.5 µM; activity change, negative = inhibition: at the top concentration
# Outline: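 Enzyme run at intermediate activity with final 0.1 mM ADP, 0.5 mM PEP (50 mM imidazole pH7.2, 50 mM KCl, 7 mM MgCl2), incubated 1 h at r.t. ATP formed read by Kinase-Glo luminescence, normalized to no-enzyme (full inhibition) and uninhibited wells.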
# Potency is the fitted concentration of half-maximal effect; tags give direction and shape of the fitted curve.
SMILES,Potency,"activity change, negative = inhibition"
COc1ccc(OC)c(N/C=C/C(=O)c2ccccc2)c1,"inconclusive [falling, partial curve]",–
Cc1ccc2[nH]c(=O)c(CN(CCCN(C)C)C(=O)Nc3ccc(F)cc3)cc2c1,"inconclusive [falling, single point]",–
N#Cc1nc(-c2ccco2)oc1NCCCN1CCOCC1,"inconclusive [falling, single point]",–
CC1CCCC(C)N1C(=O)Cn1cc(C#N)c2ccccc21 (stereo not drawn),–,inactive: 37.6%
COc1ccccc1NC(=O)Nc1ccc2c(c1)OCCO2,"inconclusive [falling, partial curve, poor fit]",–
O=C(c1ccc(N2CCN(C3CC(=O)N(Cc4cccs4)C3=O)CC2)cc1)c1cccnc1 (stereo not drawn),"inconclusive [falling, single point]",–
Cc1ccc(C(=O)Nc2nc(C)c(C)s2)o1,"inconclusive [falling, partial curve]",–
Cc1cc(OCC(=O)N(C(C)C)C(C)C)ccc1Cl,"inconclusive [falling, single point]",–
COc1cc(CC2COC(c3ccc(O)c(OC)c3)C2COC(C)=O)ccc1O (stereo not drawn),–,inactive: 37.6%
O=C1Nc2ccc([N+](=O)[O-])cc2C1=Nc1cccc(CO)c1,"inconclusive [falling, single point]",–
O=C(O)COc1ccccc1/C=N/NC(=O)CN1CCN(S(=O)(=O)c2ccc(Br)cc2)CC1,–,inactive: -11.3%
O=C(Cc1cccs1)Nc1nc(-c2cccnc2)cs1,"inconclusive [falling, single point]",–
c1ccc2sc(-c3ccc4c(c3)OCO4)nc2c1,"inconclusive [falling, partial curve]",–
COc1ccc(-c2nnn(CC(=O)N(CCN3CCOCC3)C(C(=O)NC3CCCC3)c3ccco3)n2)cc1 (stereo not drawn),–,inactive: 31.8%
O=C(NCc1cccc(C(F)(F)F)c1)N1CCN(S(=O)(=O)c2ccccc2F)CC1,–,inactive: 50.7%
Cc1cccc(/C(N)=N/OC(=O)c2ccco2)c1,"inconclusive [falling, partial curve]",–
COc1ccc(C(=O)Nc2ccccc2C(=O)N/N=C/c2ccco2)cc1,"inconclusive [falling, single point]",–
Cc1[nH]c2ccccc2c1C(=O)CSc1ccccn1,–,inactive: 43.7%
O=C(Nc1ccc(-c2cn3ccsc3n2)cc1)C1CCCC1,"inconclusive [falling, single point]",–
CCCCNC(=O)N1c2ccccc2CC1C (stereo not drawn),"inconclusive [falling, single point]",–
COc1ccccc1CNC(=O)CCC(=O)N1CCOc2ccc(Cl)cc21,"inconclusive [falling, single point]",–
CC(C)(C)C(=O)/C(=C/c1ccncc1)n1cncn1,–,inactive: 49.3%
Cc1cccc(NC(=O)c2onc3c2CCCC3)n1,active: 12.6 µM,–
CCSC1=NC(=O)/C(=C2/C=Cc3ccccc3N2CC)S1,"inconclusive [falling, full curve, poor fit]",–

SMILES,Potency,"activity change, negative = inhibition"
CC(=O)NS(=O)(=O)c1ccc2c(c1)C(=O)c1cc(S(=O)(=O)NC(C)=O)ccc1-2,–,inactive: 30.4%
CC(C)(C)c1nnc2sc(SC/C(O)=C(\C#N)c3nc4ccccc4[nH]3)nn2c1=O,"inconclusive [falling, full curve, poor fit]",–
CN(C)c1ccc(N/C=C/C(=O)c2ccccc2)cc1,"inconclusive [falling, partial curve]",–
CC(=O)C(C(C)=O)c1c(Cl)c(O)c(O)c2c(C(=O)c3ccccc3)coc12,–,inactive: 27%
Cc1cc(C(=O)N/N=C/c2ccccc2[N+](=O)[O-])c(C)o1,–,inactive: 45.8%
Cc1ccc(C)c(S(=O)(=O)Nc2cccc(-n3cnnn3)c2)c1,–,inactive: 64.8%
COc1ccc(C(=O)NCCN2C(=O)S/C(=C\c3cccnc3)C2=O)cc1[N+](=O)[O-],–,inactive: 96.9%
O=c1c2ccccc2sn1-c1ccccc1,"inconclusive [falling, single point]",–
Cc1cc(NC(=O)c2ccccc2)n(C(C)(C)C)n1,"inconclusive [falling, single point]",–
Cn1cccc1C(=O)C(=O)Nc1ccccc1,"inconclusive [falling, partial curve, poor fit]",–
O=C(c1ccccc1F)N1CCN(c2cnn(-c3cccc(Cl)c3)c(=O)c2Cl)CC1,"inconclusive [falling, single point]",–
O=C(c1ccc(S(=O)(=O)c2ccccc2Cl)c([N+](=O)[O-])c1)N1CCN(Cc2ccccc2)CC1,–,inactive: 61.5%
Cc1ccc(C(=O)N/N=C/c2ccc3c(c2)OCO3)o1,"inconclusive [falling, single point]",–
C[n+]1ccc(/C=C/c2ccccc2O)c2ccccc21,"inconclusive [falling, partial curve]",–
CS(=O)(=O)Nc1ccc(C2=NN(C(=O)c3ccco3)C(c3ccccc3F)C2)cc1 (stereo not drawn),–,inactive: 118%
COc1ccc(CC(=O)n2[nH]c(=O)cc(C)c2=O)cc1OC,–,inactive: 68%
Clc1ccc(-c2nc(-c3cnccn3)no2)cc1,"inconclusive [falling, partial curve]",–
CCCN1C=CC(=C2C(=O)c3ccccc3C2=O)C=C1,"inconclusive [falling, single point]",–
Cc1cccc(NC(=O)c2ccc3c(c2)OCCO3)n1,"inconclusive [falling, single point]",–
Cc1c(C)c2cc(Cl)c(OCc3nn[nH]n3)cc2oc1=O,–,inactive: 60.5%
CC(=O)c1cccc(NC(=S)Nc2ccn(Cc3cccc4ccccc34)n2)c1,"inconclusive [falling, single point]",–
Oc1c(N=Nc2ccccn2)ccc2ccccc12,"inconclusive [falling, partial curve]",–
O=C(Nc1ccc(F)c(Cl)c1)c1ccc2c(=O)n3c(nc2c1)CCCCC3,"inconclusive [falling, single point]",–
COC(=O)c1cc2c(C(F)(F)F)nn(C)c2s1,–,inactive: 48%
